PubChem BioAssay AID938 (National Center for Advancing Translational Sciences (NCATS), 2007)
Hit rate of the full screen: of about 73,000 compounds, about 1,800 (2.5%) were called active. Roughly 13% stayed inconclusive and do not appear here. Calls come from the whole dose curve; as a rule, active = well fitted activation curve with a large enough effect; inconclusive = small, poorly fitted or top-dose-only effect; inactive = no such curve, though single readings can be large or run the other way. The entries are a selection whose mix differs from that of the whole data set.

assay: qHTS Assay for Agonists of the Thyroid Stimulating Hormone Receptor: Activators of Intracellular cAMP Concentrations in Parental HEK 293; conditions: parental HEK293 CNG cAMP sensor, membrane potential fluorescence; series mostly up to 57.1 µM; activation: at the top concentration; note: nearly all actives have a fitted effect of over 55% in size; for activation: % of control where 0% means no effect
Excerpt: NIH Chemical Genomics Center [NCGC]
NIH Molecular Libraries Screening Centers Network [MLSCN]
PI Name: Dr. Marvin Gershengorn
This cell based assay utilized a cyclic nucleotide gated ion channel (CNG) as a biosensor for cAMP induction. HEK 293 cells stably expressing the modified CNG were purchased from BD biosciences (http://www.atto.com/products/actone/features_benefits.shtml) . Stimulation of cAMP production causes the CNG to open and subsequent membrane depolarization to occur. A fluorescent membrane potential dye (BD biosciences) was utilized to detect cAMP stimulation in cells.
The cells were maintained in DMEM medium (Invitrogen) containing 10 % FBS (Hyclone), 100 units/ml Penicillin, 100 ug/ml Streptomycin (Invitrogen), and 250 ug/ml Geneticin (Invitrogen) and 1 ug/ml Puromycin (Invitrogen) at 37C in 5% CO2. This assay was used as a counterscreen to "qHTS Assay for Agonists of the Thyroid Stimulating Hormone Receptor", to control for compounds signaling through endogenous receptors and other targets of HEK 293 cells.
NCGC Assay Protocol Summary:
High Throughput Screening. Freshly passaged cells were dispensed into 1536-well assay plates at 4 ul/well in DMEM containing phenol red (Invitrogen), 10% FCS (Hyclone), and 100 units/ml Penicillin, 100 ug/ml Streptomycin (Invitrogen) and incubated at 37 C with 5% CO2 for 20 to 36 hrs before the robotic screening. The screen was initiated by addition of 4 ul/well membrane potential dye containing 100 uM RO 20-1724 (Sigma Aldrich), followed by 60 min incubation at room temperature to allow for dye equilibration across the cell membrane. 23 nl/well compound or control was then added to the assay plates, which were incubated for additional 30 min before reading a Envision fluorescence plate reader (Perkin Elmer) in bottom-read mode for fluorescence intensity (emission at 590 nm).
Keywords: cAMP, CNG Ion Channel, quantitative high throughput screening, qHTS, HTS, probe identification, CNG, cAMP, cyclic nucleotide gated ion channel PubChem
Potency is the fitted concentration of half-maximal effect.

Structure (SMILES) | activation | Potency
Cn1c(O)c(N=N/C(=N/c2ccccn2)c2ccccn2)c2cc(Br)ccc21 | inactive: -46.4% | 
CCCNC(=O)NS(=O)(=O)c1ccc(Cl)cc1 |  | inactive
CCOC(=O)C1CCCN(Cc2ccc(OC)cc2OC)C1 (stereo not drawn) |  | active: 31.6 µM
CCN(CC)c1ccc(/C=N/NC(=O)c2ccc(O)cc2)cc1 | inactive: -33.7% | 
CCC(c1nnnn1Cc1cccs1)N1CCN(C2CCCC2)CC1 (stereo not drawn) |  | active: 5.01 µM
Cc1ccc(-c2noc(CCC(=O)NCCc3ccccc3Cl)n2)cc1 | inactive: -30.3% | 
CCOc1ccc2nc(NC(=O)Cn3cnc4c3c(=O)n(C)c(=O)n4C)sc2c1 | inactive: -41.4% | 
Cc1ccc(CCNC(=O)C2CCC(=O)N2C(C)C)cc1 (stereo not drawn) | inactive: -32.6% | 
CCC1CCc2c(sc3ncnc(N4CCOCC4)c23)C1 (stereo not drawn) |  | active: 31.6 µM
O=C1NCC2(CCN(CCc3ccccc3)CC2)O1 | inactive: 0.246% | 
O=C(O)CCCC[C@H]1CCSS1 | inactive: 15.5% | 
Cc1cc(C)n(-c2ccn(Cc3ccc(Cl)cc3Cl)c(=O)n2)n1 |  | active: 15.8 µM
Cc1cc(C)n(-c2nc(NCC3CCCO3)c3c4c(sc3n2)COC(C)(C)C4)n1 (stereo not drawn) |  | active: 25.1 µM
N=c1c(C(=O)NCc2ccc3c(c2)OCO3)cc2c(=O)n3ccccc3nc2n1Cc1cccnc1 | inactive: -80.7% | 
CCC1(c2ccccc2)C(=O)NCNC1=O |  | inactive
C[C@@H](C(=O)Nc1ccc2ccccc2c1)[C@H]1C[C@]1(C)[C@H](NC(=O)c1ccccc1)c1ccccc1 | inactive: 10.6% | 
Cc1cc(C(=O)OCc2nnc(-c3ccccc3)o2)c(C)n1-c1ccccc1 |  | active: 12.6 µM
Cn1c(=O)[nH]c(=O)c2[nH]c(N(Cc3ccccc3)Cc3ccccc3)nc21 | inactive: -35.7% | 
CC(=O)c1c(C)nc(C)nc1NC(=O)Cc1ccccc1 | inactive: -2.25% | 
CCCC(c1nnnn1C1CCCC1)N1CCN(c2ccccc2F)CC1 (stereo not drawn) |  | active: 5.01 µM
CN1CCN(c2ncc3nc(-c4cn(C)c5ccccc45)c(=O)n(CCC#N)c3n2)CC1 | inactive: -36.9% | 
O=C(OCC#CCSc1nnc(-c2cccc3ccccc23)o1)c1cccs1 | inactive: 23.7% | 
CC1=NS(=O)(=O)c2cc(Cl)ccc2N1 | inactive: -4.19% | 
CC[C@H]1OC(=O)[C@H](C)[C@@H](O[C@H]2C[C@@](C)(OC)[C@@H](O)[C@H](C)O2)[C@H](C)[C@@H](O[C@@H]2O[C@H](C)C[C@H](N(C)C)[C@H]2O)[C@](C)(O)C[C@@H](C)CN(C)[C@H](C)[C@@H](O)[C@]1(C)O | inactive: -30.5% | 
CCCC[C@@H]1C[C@H]1C(NC(=O)c1ccco1)c1ccc(Cl)cc1 (stereo partly drawn) |  | active: 15.8 µM
CCCn1c(-c2ccc(F)cc2)nc2c(NCC3CCCN3CC)nc(C)nc21 (stereo not drawn) |  | active: 15.8 µM
CCCOC(=O)c1ccc(O)cc1 |  | inactive

Structure (SMILES) | activation | Potency
Cc1ccc(-c2cc(C(F)(F)F)nn2-c2ccc(S(N)(=O)=O)cc2)cc1 | inactive: -35% | 
CN1C(=O)Cn2c1nc1ccccc12 |  | active: 20 µM
O=C1CC[C@H](N2C(=O)c3ccccc3C2=O)C(=O)N1 |  | inactive
Cc1occc1C(=O)NCCCCNC(=O)c1ccoc1C | inactive: -37.4% | 
CCn1c(=O)c2c3c(sc2n2c(SCc4ccc(F)cc4)nnc12)CCCC3 | inactive: -58.3% | 
COC(=O)[C@@]1(Cc2ccccc2)[C@H]2c3cc(C(=O)N4CCCC4)n(Cc4cc(F)cc5c4OCOC5)c3C[C@H]2CN1C(=O)c1ccccc1 |  | active: 2.51 µM
CO/N=C(/C(=O)N[C@@H]1C(=O)N2C(C(=O)O)=C(COC(N)=O)CS[C@H]12)c1ccco1 | inactive: -20.4% | 
Cc1nnc(SCC(=O)N2CCOCC2)n1C | inactive: 10.7% | 
CNc1ncnc2c1ncn2[C@@H]1O[C@@H](CO)[C@H](O)[C@@H]1O | inactive: -18.3% | 
Cc1nc2ncnn2c(C)c1CCC(=O)N1CCN(c2ccccn2)CC1 | inactive: 10% | 
COC(=O)[C@H](Cc1ccccc1)NC(=O)[C@@H](N)CC(=O)O | inactive: -16.9% | 
COc1cc(NC(=O)c2ccco2)c(OC)cc1NC(=O)Nc1ccc(Cl)cc1 | inactive: -56.7% | 
CCC(C)(C)OC | inactive: -4.14% | 
COCCN(C(=O)Cn1nnc2ccccc21)C(C(=O)NC1CCCC1)c1cc(OC)ccc1OC (stereo not drawn) |  | active: 25.1 µM
Cc1noc(C)c1CSc1nc2ccccc2c(=O)n1-c1ccc(F)cc1F |  | active: 15.8 µM
Cn1cnc(S(=O)(=O)Nc2ccc(C(F)(F)F)cc2)c1 | inactive: -60.6% | 
CCN(CC)S(=O)(=O)c1cccc(-c2nnc(SCCOc3ccccc3C)o2)c1 |  | active: 15.8 µM
CCSC1=C(C#N)C(c2ccc(Cl)cc2)C2=C(CCCC2=O)N1 (stereo not drawn) | inactive: -129% | 
Cc1ccc(C)c2[nH]c(=O)c(CN(CC3CCCO3)C(=O)NC3CCCCC3)cc12 (stereo not drawn) |  | active: 3.98 µM
COC(=O)c1[nH]c2ccc(C)cc2c1NC(=O)C(C)N1CCN(C2CCCCC2)CC1 (stereo not drawn) | inactive: -57.1% | 
Cc1ccc(C(C)(C)C)cc1 | inactive: 6.25% | 
COC(=O)c1c(NC(=O)c2ccco2)sc(C(=O)Nc2ccc(F)cc2)c1C |  | active: 25.1 µM
COc1ccc2cc(C3(C)NC(=O)N(CC(=O)NCc4ccco4)C3=O)ccc2c1 (stereo not drawn) | inactive: -13.4% | 
N=C(N)SCCN | inactive: 0.0298% | 
CCCCOC(=O)c1ccc(O)cc1 |  | inactive
Cc1cc(NC(=O)COc2ccc(N(C)S(=O)(=O)c3ccccc3)cc2)no1 | inactive: 23.7% | 
